Experimental data taken from PMC13248759.
Results are given in words; binding and its absence hold for the method and conditions named. Binding seen in cells or lysates may run through a third protein. Some results given as binding are weak or reduced against the parent protein; the word gives no strength. For part of these data: Tags and fused reporters may be left off the sequences shown. Each block holds one binder with its values, some of them ahead of it.

Assays:
NUMB-1-FLAG (human) = molecular target: T1, NUMB-1-FLAG (human) (UniProt P49757); experiment: co-IP; lysates of transfected HEK-293 cells in JS buffer (50 mM HEPES pH 7.5, 150 mM NaCl, 1% Triton X-100), anti-FLAG or anti-HA beads, 2 h at 4 C, immunoblot; in some panels SNX9 siRNA or graded amounts of SNX9-HA
T1 sequence: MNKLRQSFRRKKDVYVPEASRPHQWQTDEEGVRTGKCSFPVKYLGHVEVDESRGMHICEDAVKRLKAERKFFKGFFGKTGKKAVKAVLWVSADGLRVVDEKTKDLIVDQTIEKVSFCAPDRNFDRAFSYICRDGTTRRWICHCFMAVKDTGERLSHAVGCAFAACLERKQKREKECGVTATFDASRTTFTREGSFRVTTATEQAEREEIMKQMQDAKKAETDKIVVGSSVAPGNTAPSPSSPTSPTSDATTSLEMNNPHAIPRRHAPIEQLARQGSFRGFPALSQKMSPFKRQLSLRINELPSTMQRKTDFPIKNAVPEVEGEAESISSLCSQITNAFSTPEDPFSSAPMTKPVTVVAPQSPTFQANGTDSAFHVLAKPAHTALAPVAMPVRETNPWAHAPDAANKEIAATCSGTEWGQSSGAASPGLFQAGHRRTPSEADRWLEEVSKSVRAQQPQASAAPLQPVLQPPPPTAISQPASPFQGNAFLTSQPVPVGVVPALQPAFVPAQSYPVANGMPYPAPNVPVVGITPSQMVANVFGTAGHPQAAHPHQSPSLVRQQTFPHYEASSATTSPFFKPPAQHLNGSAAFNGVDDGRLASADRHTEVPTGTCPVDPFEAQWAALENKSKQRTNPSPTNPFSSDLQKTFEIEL

[1] = molecular target: sorting nexin 9 (SNX9), endogenous (human (endogenous in HEK-293, MCF10A, HBL-100)) (UniProt Q9Y5X1); experiment: co-IP; endogenous proteins from HEK-293 lysate in JS buffer, anti-NUMB (AB21) or anti-SNX9 antibody on Protein A/G magnetic beads, 2 h at 4 C, immunoblot; in some panels SNX9 or NUMB siRNA
SNX9-FLAG = SNX9-FLAG (UniProt Q9Y5X1); experiment: co-IP; lysates of extracellular vesicles purified by ultracentrifugation from the conditioned medium of SNX9-FLAG expressing cells, anti-FLAG magnetic agarose beads, immunoblot; FLAG peptide as negative control

binding (NUMB-1-FLAG (human)): binds
B1: SNX9-Y177A mutant (protein, UniProt Q9Y5X1 1-595)
chain: MATKARVMYDFAAEPGNNELTVNEGEIITITNPDVGGGWLEGRNIKGERGLVPTDYVEILPSDGKDQFSCGNSVADQAFLDSLSASTAQASSSAASNNHQVGSGNDPWSAWSASKSGNWESSEGWGAQPEGAGAQRNTNTPNNWDTAFGHPQAYQGPATGDDDDWDEDWDGPKSSSAFKDSESADAGGAQRGNSRASSSSMKIPLNKFPGFAKPGTEQYLLAKQLAKPKEKIPIIVGDYGPMWVYPTSTFDCVVADPRKGSKMYGLKSYIEYQLTPTNTNRSVNHRYKHFDWLYERLLVKFGSAIPIPSLPDKQVTGRFEEEFIKMRMERLQAWMTRMCRHPVISESEVFQQFLNFRDEKEWKTGKRKAERDELAGVMIFSTMEPEAPDLDLVEIEQKCEAVGKFTKAMDDGVKELLTVGQEHWKRCTGPLPKEYQKIGKALQSLATVFSSSGYQGETDLNDAITEAGKTYEEIASLVAEQPKKDLHFLMECNHEYKGFLGCFPDIIGTHKGAIEKVKESDKLVATSKITLQDKQNMVKRVSIMSYALQAEMNHFHSNRIYDYNSVIRLYLEQQVQFYETIAEKLRQALSRFPVM

binding (NUMB-1-FLAG (human)): binds
B2: EPS15, endogenous (protein, UniProt P42566 1-896)
chain: MAAAAQLSLTQLSSGNPVYEKYYRQVDTGNTGRVLASDAAAFLKKSGLPDLILGKIWDLADTDGKGILNKQEFFVALRLVACAQNGLEVSLSSLNLAVPPPRFHDTSSPLLISGTSAAELPWAVKPEDKAKYDAIFDSLSPVNGFLSGDKVKPVLLNSKLPVDILGRVWELSDIDHDGMLDRDEFAVAMFLVYCALEKEPVPMSLPPALVPPSKRKTWVVSPAEKAKYDEIFLKTDKDMDGFVSGLEVREIFLKTGLPSTLLAHIWSLCDTKDCGKLSKDQFALAFHLISQKLIKGIDPPHVLTPEMIPPSDRASLQKNIIGSSPVADFSAIKELDTLNNEIVDLQREKNNVEQDLKEKEDTIKQRTSEVQDLQDEVQRENTNLQKLQAQKQQVQELLDELDEQKAQLEEQLKEVRKKCAEEAQLISSLKAELTSQESQISTYEEELAKAREELSRLQQETAELEESVESGKAQLEPLQQHLQDSQQEISSMQMKLMEMKDLENHNSQLNWCSSPHSILVNGATDYCSLSTSSSETANLNEHVEGQSNLESEPIHQESPARSSPELLPSGVTDENEVTTAVTEKVCSELDNNRHSKEEDPFNVDSSSLTGPVADTNLDFFQSDPFVGSDPFKDDPFGKIDPFGGDPFKGSDPFASDCFFRQSTDPFATSSTDPFSAANNSSITSVETLKHNDPFAPGGTVVAASDSATDPFASVFGNESFGGGFADFSTLSKVNNEDPFRSATSSSVSNVVITKNVFEETSVKSEDEPPALPPKIGTPTRPCPLPPGKRSINKLDSPDPFKLNDPFQPFPGNDSPKEKDPEIFCDPFTSATTTTNKEADPSNFANFSAYPSEEDMIEWAKRESEREEEQRLARLNQQEQEDLELAIALSKSEISEA

binding [1]: binds
binding (SNX9-FLAG): binds
B3: NUMB, endogenous (protein, UniProt P49757-1 1-651)
chain: T1 sequence

binding (NUMB-1-FLAG (human)): no binding
B4: SNX33, endogenous (protein, UniProt Q8WV41 1-574)
chain: MALKGRALYDFHSENKEEISIQQDEDLVIFSETSLDGWLQGQNSRGETGLFPASYVEIVRSGISTNHADYSSSPAGSPGAQVSLYNSPSVASPARSGGGSGFLSNQGSFEEDDDDDWDDWDDGCTVVEEPRAGGLGTNGHPPLNLSYPGAYPSQHMAFRPKPPLERQDSLASAKRGSVVGRNLNRFSCFVRSGVEAFILGDVPMMAKIAETYSIEMGPRGPQWKANPHPFACSVEDPTKQTKFKGIKSYISYKLTPTHAASPVYRRYKHFDWLYNRLLHKFTVISVPHLPEKQATGRFEEDFIEKRKRRLILWMDHMTSHPVLSQYEGFQHFLSCLDDKQWKMGKRRAEKDEMVGASFLLTFQIPTEHQDLQDVEDRVDTFKAFSKKMDDSVLQLSTVASELVRKHVGGFRKEFQKLGSAFQAISHSFQMDPPFCSEALNSAISHTGRTYEAIGEMFAEQPKNDLFQMLDTLSLYQGLLSNFPDIIHLQKGAFAKVKESQRMSDEGRMVQDEADGIRRRCRVVGFALQAEMNHFHQRRELDFKHMMQNYLRQQILFYQRVGQQLEKTLRMYDNL

binding (NUMB-1-FLAG (human)): no binding
B5: SNX18, endogenous (protein, UniProt Q96RF0 1-628)
chain: MALRARALYDFRSENPGEISLREHEVLSLCSEQDIEGWLEGVNSRGDRGLFPASYVQVIRAPEPGPAGDGGPGAPARYANVPPGGFEPLPVAPPASFKPPPDAFQALLQPQQAPPPSTFQPPGAGFPYGGGALQPSPQQLYGGYQASQGSDDDWDDEWDDSSTVADEPGALGSGAYPDLDGSSSAGVGAAGRYRLSTRSDLSLGSRGGSVPPQHHPSGPKSSATVSRNLNRFSTFVKSGGEAFVLGEASGFVKDGDKLCVVLGPYGPEWQENPYPFQCTIDDPTKQTKFKGMKSYISYKLVPTHTQVPVHRRYKHFDWLYARLAEKFPVISVPHLPEKQATGRFEEDFISKRRKGLIWWMNHMASHPVLAQCDVFQHFLTCPSSTDEKAWKQGKRKAEKDEMVGANFFLTLSTPPAAALDLQEVESKIDGFKCFTKKMDDSALQLNHTANEFARKQVTGFKKEYQKVGQSFRGLSQAFELDQQAFSVGLNQAIAFTGDAYDAIGELFAEQPRQDLDPVMDLLALYQGHLANFPDIIHVQKGKAWPLEQVIWSVLCRLKGATLTAVPLWVSESYSTGEEASRDVDAWVFSLECKLDCSTGSFLLEYLALGNEYSFSKVQRVPLMTVLSF
